Assay results as given in PubChem BioAssay AID1479 (National Center for Advancing Translational Sciences (NCATS), 2009).
The campaign covered roughly 280,000 compounds. About 820 (0.29%) were called active. The shares of active, inactive and inconclusive entries below differ from those in the screen. Calls come from the whole dose curve; as a rule, active = well fitted curve in either direction with a large enough effect; inconclusive = small, poorly fitted or top-dose-only effect; inactive = flat fitted curve, though single readings scatter. No potency is given beside an inconclusive call; the fits are too rough.

Experiment: Total Fluorescence Counterscreen for Inhibitors of the Interaction of Thyroid Hormone Receptor and Steroid Receptor Coregulator 2
Conditions: TRb/SRC2 Texas Red total fluorescence interference; series mostly up to 106 µM; fluorescence change, negative = quenching: at the top concentration
Outline: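 Human TRβ ligand-binding domain (0.6 uM) and Texas Red SRC2 peptide (20 nM) in Tris buffer with 1 uM T3 and 5% DMSO were incubated with pinned compound for 5 hr at ambient temperature. Total fluorescence was computed as S + 2P (555/632 nm).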
% is set by controls: 0 for no effect and ±100 for the full control effect; potency is the fitted concentration of half-maximal effect; tags give direction and shape of the fitted curve or compound fluorescence and quenching.

Structure (SMILES)	fluorescence change, negative = quenching	Potency
Cn1cc(S(=O)(=O)N2CCCCC2)cc1C(=O)Nc1cccc(C#N)c1	inactive: 3.82%	–
COc1ccc(/C(N)=N/OC(=O)Cc2ccccc2)cc1	–	inconclusive [quencher, full curve]
O=c1cc(O)c2sc(Nc3ccc(F)c(Cl)c3)nc2[nH]1	inactive: -1.27%	–
Nc1ccc2nc3c(=O)[nH]c(=S)[nH]c3nc2c1	–	inconclusive [quencher, full curve]
Cc1ccc(-c2ccc(/C=C/C(=O)c3ccccc3)o2)cc1	inactive: -14.1%	–
Cc1cccc(C)c1NC(=O)COC(=O)COc1ccc2c(C)cc(=O)oc2c1	–	inconclusive [quencher, full curve]
Cc1ccc(OCC(=O)OCc2cc(=O)n3nc(C4CC4)sc3n2)cc1	–	inconclusive [falling, full curve, poor fit]
Cn1c(SCc2ccc(Br)cc2)nc2c([nH]c3ccccc32)c1=O	–	inconclusive [falling, full curve, poor fit]
COc1ccc(OC)c(NC(=O)c2cc(=O)c3c(C)cc(C)cc3o2)c1	–	inconclusive [falling, partial curve, poor fit]
Cc1ccc(/C=C2\C(=O)Nc3ccccc32)o1	–	active: 0.112 µM [quencher]
O=C(O)/C=C\C(=O)Nc1ccc(N2CCN(c3ccc(Cl)c(Cl)c3)CC2)cc1	–	inconclusive [fluorescent, partial curve]
CCC(C)NC(=O)c1sc2ncccc2c1-n1c(C)ccc1C (stereo unspecified)	–	inconclusive [quencher, full curve]
CCOC(=O)c1cccc(NC(=O)CCc2c(C)nn(-c3ccc(N4CCOCC4)nn3)c2C)c1	–	inconclusive [falling, partial curve, poor fit]
Cc1ccc(NC(=O)Cn2c(SCc3ccc(F)cc3)nc3cccnc32)cc1F	–	inconclusive [quencher, full curve]
Nc1c(C(=O)c2ccccc2)sc2c1c(=O)[nH]c(=O)n2-c1ccccc1	–	inconclusive [falling, partial curve, poor fit]
CC1=C2C(=COC(C)C2C)C(=O)C(C(=O)O)=C1O (stereo unspecified)	inactive: -0.356%	–
Cc1ccc(N2CCN(C(=O)c3cnn(-c4ccc(F)cc4F)c3C3CCN(C(=O)OC(C)(C)C)CC3)CC2)c(C)c1	–	inconclusive [falling, full curve, poor fit]
CC(C)C(=O)N1CCN(c2ccc(NC(=O)c3ccc([N+](=O)[O-])o3)cc2)CC1	inactive: -1.17%	–
COc1ccc(CCC(=O)NCc2nc3cccnc3n2Cc2ccc(F)cc2)cc1	–	inconclusive [quencher, full curve]
COc1cccc(Nc2sc(C(=O)c3ccc(Cl)cc3)c(N)c2C(=O)NCc2ccc(C)cc2)c1	inactive: 2.78%	–
CC(=O)NCCc1ccc(O)c(O)c1	inactive: -3.73%	–
Cc1ccc(C(NC(=O)C(C)C)c2cc([N+](=O)[O-])c3cccnc3c2O)cc1 (stereo unspecified)	inactive: 0.242%	–

Structure (SMILES)	fluorescence change, negative = quenching	Potency
CSc1ncc(C(=O)N2CCN(c3cccc(Cl)c3)CC2)c(C)n1	–	inconclusive [quencher, full curve]
O=c1c(=O)n(Cc2ccc(Cl)cc2)ccn1Cc1ccc(F)cc1	–	inconclusive [falling, full curve, poor fit]
Cc1c(C(=O)NCCN2C(=O)S/C(=C\c3cccs3)C2=O)cccc1[N+](=O)[O-]	–	inconclusive [falling, full curve, poor fit]
Cc1ccc(OCC(=O)NCC2(N(C)C)CCCCC2)cc1C	–	inconclusive [quencher, partial curve]
O=C(CSc1nnc(-c2ccccc2F)o1)Nc1cccc(C(F)(F)F)c1	–	inconclusive [falling, partial curve, poor fit]
CCCc1nc2ccccc2n1CC(O)COc1ccc(C(=O)OC)cc1 (stereo unspecified)	–	inconclusive [falling, full curve, poor fit]
CCOc1ccc(CCNc2nc3ccccc3n3c(C)nnc23)cc1OCC	–	inconclusive [falling, partial curve, poor fit]
Fc1ccc(-c2n[nH]c(=S)n2/N=C/c2c[nH]c3ccccc23)cc1	–	inconclusive [falling, full curve, poor fit]
CCOC(=O)NN1C(=O)c2ccccc2NC1c1ccc(N(C)C)cc1 (stereo unspecified)	–	active: 112 µM [quencher]
CC(C)(C)c1ccc(S(=O)(=O)NNC(=O)C2CCN(Cc3cccc(F)c3)CC2)cc1	inactive: -4.2%	–
CCCn1c2c(c(O)c(C(=O)NC)c1=O)CCCC2	inactive: -3.04%	–
Cc1ccc(C(=O)COC(=O)C(Cc2c[nH]c3ccccc23)NC(=O)c2ccc(C(C)(C)C)cc2)cc1 (stereo unspecified)	–	inconclusive [falling, partial curve, poor fit]
Cc1ccc2[nH]c(=O)c(CN(C(=O)c3cccc(Cl)c3)C(C)(C)C)cc2c1	–	active: 31.6 µM [quencher]
COc1ccc(CCNC(=O)CSc2nnnn2-c2cccc(C(C)=O)c2)cc1OC	–	inconclusive [falling, full curve, poor fit]
Cc1ccc(-c2nnc(Nc3ccc(Cl)c(Cl)c3)c3ccccc23)cc1S(=O)(=O)NCCO	–	inconclusive [falling, partial curve, poor fit]
Cc1ccc(N(CC(=O)Nc2ccc(C)c(F)c2)S(=O)(=O)c2c(C)n[nH]c2C)cc1	inactive: -0.836%	–
CC(Oc1ccc(Cl)cc1Cl)c1nc(-c2ccc(NC(=O)c3cccnc3)cc2)no1 (stereo unspecified)	inactive: 0.423%	–
COc1cccc(NC(=O)c2cnn(-c3ccccc3)c2-n2cccc2)c1	–	inconclusive [falling, full curve, poor fit]
COc1ccccc1-n1c(/C=C/c2c(C)n(C)c3ccccc23)nc2ccccc2c1=O	–	inconclusive [quencher, full curve]
O=C(NCCc1ccccc1)C(=O)NCC(c1cccnc1)N1CCN(c2ccccc2F)CC1 (stereo unspecified)	–	inconclusive [quencher, full curve]
COc1ccc(NC(=O)c2c(C)oc3ccc(O)c(CN4CCC(C)CC4)c23)cc1	–	inconclusive [falling, full curve, poor fit]
O=Cc1cn(CC(O)CN2CCCCC2)c2ccccc12 (stereo unspecified)	inactive: 1.31%	–

Structure (SMILES)	fluorescence change, negative = quenching	Potency
C=C(C)C(=O)/C=C/c1ccc(Br)cc1	inactive: -0.904%	–
Cc1cc(N2C(=O)C(O)=C(C(=O)c3ccc(C)o3)C2c2cccs2)no1 (stereo unspecified)	inactive: 1.84%	–
Cc1ccc(C)c(NC(=O)C(=O)NCCc2csc3nc(-c4ccccc4C)nn23)c1	–	active: 22.4 µM [quencher]
CCc1ccccc1NC(=O)CN1C(=O)c2cccnc2Oc2ccc(Cl)cc21	–	active: 14.1 µM [quencher]
Cn1c(Sc2ccc(C(=O)O)cc2[N+](=O)[O-])nnc1-c1ccccc1	inactive: 5.15%	–
CCCS(=O)(=O)N1CC(=O)N(c2ccccc2C)C(C)(C(=O)NC2CCCC2)C1 (stereo unspecified)	–	inconclusive [quencher, full curve]
NC(=O)NC(CC(=O)NCCCc1ccccc1)c1ccc(Cl)cc1 (stereo unspecified)	–	inconclusive [fluorescent, full curve]
COc1ccc(-c2oc(NC(=O)CCl)c(C#N)c2-c2ccc(OC)cc2)cc1	inactive: -5.47%	–
CCCCCCCCOc1c(OC)cc(/C=C/C(=O)N2CCN(c3ccc(C)c(C)c3)CC2)cc1OC	–	inconclusive [falling, full curve, poor fit]
CNS(=O)(=O)c1ccc2nc(NC(=O)/C=C/c3ccco3)sc2c1	–	inconclusive [quencher, partial curve]
Cn1c(SCC(=O)c2ccc(F)cc2)nnc1-c1ccccc1Br	–	inconclusive [falling, full curve, poor fit]
Cc1cc(C)cc(NC(=O)C2CCC(CNS(=O)(=O)c3ccc4c(c3)C(C)(C)C(=O)N4C)CC2)c1 (stereo unspecified)	inactive: -2.84%	–
Cn1c(=O)c2sccc2n2c(CCC(=O)NCc3ccccc3Cl)nnc12	–	inconclusive [falling, full curve, poor fit]
COc1ccc(CNC(=O)C2CCN(C(=O)N3CC(C)Oc4ccc(C)cc43)CC2)cc1 (stereo unspecified)	–	inconclusive [falling, full curve, poor fit]
CN(Cc1ccccc1)C(=O)C1CCN(S(=O)(=O)c2ccc3nc4c(c(C(=O)O)c3c2)CCCC4)CC1	–	inconclusive [falling, full curve, poor fit]
Clc1cccc(-c2ccc(C=Nc3ccc(N4CCOCC4)cc3)o2)c1Cl	inactive: 3.04%	–
CCOc1ccccc1CNC(=O)CCn1cccn1	–	inconclusive [falling, partial curve, poor fit]
COc1ccc(/C=N/NC(=O)c2ccc(O)cc2O)cc1CSc1ccccn1	–	inconclusive [falling, partial curve, poor fit]
CCC(Sc1nc2cc3c(cc2c(=O)n1CCCC(=O)NCc1ccc2c(c1)OCO2)OCO3)C(=O)NCCCOC (stereo unspecified)	inactive: -0.17%	–
C/C(CCN1CCc2nc(-c3ccccc3)c(-c3ccccc3)cc2C1)=N\O[C@@H](C)c1cn([C@@H]2COC[C@@H]2O)nn1	–	inconclusive [falling, full curve, poor fit]
CCCCC[C@H](CC(=O)NO)C(=O)N[C@H](C(=O)N1CCC[C@H]1CO)C(C)C	–	inconclusive [quencher, full curve]
Fc1ccc2[nH]c3c(c2c1)CN(C(=S)NCc1ccccc1)CC3	inactive: -4.1%	–
